Source: the supplement of paper PMC4604168 (melanoma cell lines)
Some of the results follow. Most values come without repeats; read them as rough.

Experiments:
Test in all cases: cell count relative to DMSO control; melanoma cells; higher = more viable cells
Settings in all cases: library dose: standard library concentration; 72 h
[1] = system: A101D
[2] = system: A2058
[3] = system: A375
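Note: cells treated in 1,536-well plates, then fixed and DAPI-stained, with nuclei counted from automated high-throughput microscope images.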

Row | Structure (SMILES) | cell count [1] | cell count [2] | cell count [3]
1 | Cn1c(=O)n(-c2ccc(C(C)(C)C#N)cc2)c2c3cc(-c4cnc5ccccc5c4)ccc3ncc21 + O=C(O)[C@@H]1[O][Sb](=[O])([O][Sb]2(=[O])[O][C@H]([C@H](O)CO)[C@H](O)[C@H](C(=O)O)[O]2)[O][C@H]([C@H](O)CO)[C@@H]1O [stibogluconate] (first compound 0.02 µM, partner dose 10 µM) | 81.4% | 67.4% | 87.8%
2 | CC(C)C[C@H](NC(=O)[C@H](Cc1ccccc1)NC(=O)c1cnccn1)B(O)O [Bortezomib] + COc1ccc(Cl)c(Nc2nc3ccccc3nc2NS(=O)(=O)c2cccc(NC(=O)C(C)(C)N)c2)c1 [XL147] (first compound 0.005 µM, partner dose 4 µM) | 12.5% | 13.9% | 100%
3 | COc1ccc(C2=N[C@@H](c3ccc(Cl)cc3)[C@@H](c3ccc(Cl)cc3)N2C(=O)N2CCNC(=O)C2)c(OC(C)C)c1 [Nutlin-3] + CC(C)C[C@H](NC(=O)[C@H](Cc1ccccc1)NC(=O)c1cnccn1)B(O)O [Bortezomib] (first compound 0.5 µM, partner dose 0.005 µM) | 10.5% | 11.4% | 75.7%
4 | Cc1cn(-c2cc(NC(=O)c3ccc(C)c(Nc4nccc(-c5cccnc5)n4)c3)cc(C(F)(F)F)c2)cn1 [nilotinib] + CC(C)(C)c1cnc(CSc2cnc(NC(=O)C3CCNCC3)s2)o1 [SNS-032] (first compound 1 µM, partner dose 0.05 µM) | 78.3% | 109% | 138%
